Measured values from article PMC4336329 (PLoS ONE, 2015).
Among all 310,000 compounds or so, about 14,000 (4.5%) showed an effect of 50% or more. Effects have a minus sign here. Some of the results follow.

Biological target: human ether-à-go-go-related gene (hERG) potassium channel (human, UniProt Q12809)
Experiment: primary screen, population patch clamp on CHO cells stably expressing hERG
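Also: peak tail current of the secondary pulse compared with the same well before compound.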

human ether-à-go-go-related gene (hERG) potassium channel, sequence (Q12809 whole entry, looked up): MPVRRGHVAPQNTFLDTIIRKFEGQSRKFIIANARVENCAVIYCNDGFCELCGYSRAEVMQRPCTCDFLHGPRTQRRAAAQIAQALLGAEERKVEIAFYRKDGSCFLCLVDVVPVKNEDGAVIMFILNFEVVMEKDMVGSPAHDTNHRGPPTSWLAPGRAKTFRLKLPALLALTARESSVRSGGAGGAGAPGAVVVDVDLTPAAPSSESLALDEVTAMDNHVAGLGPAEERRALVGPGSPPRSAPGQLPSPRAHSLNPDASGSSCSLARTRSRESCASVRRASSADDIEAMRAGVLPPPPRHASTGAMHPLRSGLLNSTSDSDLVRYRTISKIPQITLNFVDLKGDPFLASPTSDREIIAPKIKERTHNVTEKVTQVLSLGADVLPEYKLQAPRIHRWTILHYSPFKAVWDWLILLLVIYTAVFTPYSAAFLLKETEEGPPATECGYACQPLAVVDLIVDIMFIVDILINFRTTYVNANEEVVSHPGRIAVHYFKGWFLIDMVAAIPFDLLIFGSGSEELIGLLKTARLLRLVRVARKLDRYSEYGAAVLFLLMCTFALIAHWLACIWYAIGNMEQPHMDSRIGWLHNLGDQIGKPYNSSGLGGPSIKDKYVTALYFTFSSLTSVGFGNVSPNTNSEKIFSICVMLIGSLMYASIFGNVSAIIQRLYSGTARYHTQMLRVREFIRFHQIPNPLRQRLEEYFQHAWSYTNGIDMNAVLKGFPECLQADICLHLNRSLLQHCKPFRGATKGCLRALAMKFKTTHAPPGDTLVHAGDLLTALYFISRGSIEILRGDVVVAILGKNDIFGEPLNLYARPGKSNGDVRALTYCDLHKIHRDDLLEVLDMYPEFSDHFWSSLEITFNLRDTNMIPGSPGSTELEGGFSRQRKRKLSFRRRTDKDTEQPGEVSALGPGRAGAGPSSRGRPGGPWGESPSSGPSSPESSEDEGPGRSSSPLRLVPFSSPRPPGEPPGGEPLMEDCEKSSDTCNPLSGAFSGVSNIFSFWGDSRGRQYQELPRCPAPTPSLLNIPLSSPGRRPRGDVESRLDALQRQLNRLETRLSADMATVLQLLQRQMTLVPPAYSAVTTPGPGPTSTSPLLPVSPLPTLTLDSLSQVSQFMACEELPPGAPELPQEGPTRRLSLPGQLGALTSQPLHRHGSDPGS

In order of falling “hERG current change (%, negative = inhibition) at 10uM” value:
1. CN(CC(=O)Nc1ccc(N2CCOCC2)cc1)C(=O)c1ccc(O)c(Cl)c1  23.4%
2. CCC(=O)c1ccc(OCC(O)CN2C(=O)NC(C)(C)C2=O)cc1 (stereo not drawn)  16.5%
3. CCOC(=O)C1=C(O)c2ccccc2C(=O)/C1=C\c1ccc(C)cc1  15.3%
4. COC(=O)c1ccc(C(=O)NC(=S)Nc2nc3c(s2)CCCC3)cc1  12.8%
5. CN(c1ccc(O)cc1)c1nc(-c2cccnc2)cs1  11.9%
6. Cc1cccc(C)c1NC(=O)N1CCC(n2c(=O)[nH]c3ccccc32)CC1  10.6%
7. COc1cccc(N2CCN(C(=O)c3cc4c(OC)c(OC)c(OC)cc4[nH]3)CC2)c1  9.11%
8. COCCNC(=O)/C(C#N)=C/c1c(N2CCCCCC2)nc2ccccn2c1=O  7.56%
9. Cc1cccc(C(=O)Nc2ccc(Cl)cc2C(=O)c2ccccc2)c1  2.98%
10. O=C(OCc1nc2ccccc2s1)c1cccs1  2.91%
11. CCC(Sc1nc2ncccc2[nH]1)C(=O)NC1CCCC1 (stereo not drawn)  2.8%
12. Cc1cccc(N2CCN(C3=NC(=O)/C(=C\c4cn[nH]c4-c4ccccc4)S3)CC2)c1  1.88%
13. CC(C)Cn1cc(C(=O)NCc2cccs2)c2c3ccccc3n(C)c2c1=O  1.7%
14. COn1c(-c2ccc(Cl)cc2)nc2ncccc21  0.801%
15. Cc1nc(SCC(=O)N(CC(C)C)C2CCS(=O)(=O)C2)c2ccccc2n1 (stereo not drawn)  -3.83%
16. COc1ccc(NC(=O)COC(=O)CNS(=O)(=O)c2ccc(C)cc2)c(OC)c1  -5.57%
17. CC1(c2ccccc2)NC(=O)N(CC(=O)Nc2cc3c(cc2Br)OCCO3)C1=O (stereo not drawn)  -8.6%
18. CCCCn1c(SCC(=O)N2CCOCC2)nc2c1c(=O)n(C)c(=O)n2C  -9.25%
19. Clc1ccc(-c2csc(N/N=C/c3cccnc3)n2)c(Cl)c1  -11.9%
20. COc1cc(C)ccc1OCCCOc1cc(C)ccc1Cl  -13.9%
21. O=C(NCCCN1CCOCC1)c1cccnc1SCc1ccccc1Cl  -14.6%
22. Cn1c(=O)c2c(nc(N3CCCCCC3)n2CC(O)COc2ccc(Cl)cc2)n(C)c1=O (stereo not drawn)  -15.9%
23. O=C(CCCc1nc2ccccc2s1)NCc1ccc(F)cc1  -37.4%
24. CCCCCCC(=O)NNC(=O)c1c(O)c2ccccc2n(CC)c1=O  -38%
